Data as given in PubChem BioAssay AID504832 (National Center for Advancing Translational Sciences (NCATS), 2011).
Among all 310,000 compounds or so, about 18,000 (5.8%) were called active. Inconclusive means that the source gave no clear call. Such entries were picked first, then a sample of the others. Calls come from the whole dose curve; as a rule, active = well fitted inhibition curve with a large enough effect; inconclusive = small, poorly fitted or top-dose-only effect, or another doubt; inactive = no such curve, though single readings can be large or run the other way. No potency is given beside an inconclusive call; the fits are too rough.
% is set by controls: 0 for no effect and ±100 for the full control effect; potency is the fitted concentration of half-maximal effect; tags give direction and shape of the fitted curve.

Assay: Primary qHTS for delayed death inhibitors of the malarial parasite plastid, 48 hour incubation
Conditions: P. falciparum luciferase growth in erythrocytes; series mostly up to 28.7 µM; activity change, negative = inhibition: at the top concentration
Procedure, shortened: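 Firefly luciferase activity from engineered P. falciparum reports growth; inhibitors lower the luminescent signal. Cultures contained 2% hematocrit erythrocytes at 0.1% final parasitemia.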
For Cc1[nH]c2ccccc2c1C(=O)C(C)OC(=O)c1ccc(NC(=O)CC#N)cc1 (centres undefined), the Potency was active: 3.7 µM.
For Cc1cccc(NC(=S)NCc2ccc3[nH]c4c(c3c2)CCCC4)c1, the Potency was inconclusive [inhibitor, partial curve, poor fit].
With Cc1[nH]nc2c1C(c1ccc(F)cc1)C1=C(CC(C)(C)CC1=O)N2 (centres undefined) the Potency was inconclusive [inhibitor, partial curve].
In the case of COC(=O)c1cccc(NC(=O)CN2CCC(NC(=O)c3cc(OC)c(OC)c(OC)c3)CC2)c1, the Potency is reported as inconclusive [inhibitor, full curve, poor fit].
With CCc1cc(C(=O)c2ccc(OC)cc2)c(N)s1 the “activity change, negative = inhibition” value was inactive: 2.97%.
In the case of COc1cc(CN2CCNC(=O)C2CC(=O)N(C)CCCN2CCOCC2)cc(OC)c1 (centres undefined), the “activity change, negative = inhibition” value is reported as inactive: 0.0207%.
With COc1ccccc1N1CCN(C(=O)c2ccc3[nH]c4c(c3c2)CC(C)CC4)CC1 (centres undefined) the Potency was inconclusive [inhibitor, partial curve, poor fit].
In the case of Cn1c(N)c(C(=O)CSc2nnc(NC3CCCCC3)s2)c(=O)n(C)c1=O, the Potency is reported as inconclusive [inhibitor, partial curve].
With O=C(Nc1ccc(-c2noc(CCc3ccccc3)n2)cc1)c1ccco1 the Potency was inconclusive [inhibitor, full curve, poor fit].
For CC(=O)Nc1ccc(S(=O)(=O)N(C)CC(=O)Nc2ccc(Br)cc2F)cc1, the Potency was inconclusive [inhibitor, single point].
With COc1ccccc1-n1c(SCC(=O)NCc2ccc3c(c2)OCO3)nc2cc([N+](=O)[O-])ccc21 the Potency was inconclusive [inhibitor, single point].
For Cc1cc(OC(C)C(=O)NCc2ccccn2)c2c(C)c(Cc3ccccc3)c(=O)oc2c1 (centres undefined), the Potency was inconclusive [inhibitor, partial curve].
With COc1ccc(CCNc2c3ccccc3nc3ccccc23)cc1OC the Potency was active: 1.47 µM.
With O=C(C1CCCC1)N1CCC(CC2CC(c3cccc(Br)c3)=NO2)(C(=O)NCC2CCCCC2)CC1 (centres undefined) the Potency was inconclusive [inhibitor, full curve, poor fit].
With CN(Cc1ccccc1)S(=O)(=O)c1ccc(C(=O)Nc2nnc(C3CC3)o2)cc1 the Potency was inconclusive [inhibitor, full curve, poor fit].
With CC(C)(C)NC(=O)CN1CCCN(C(=O)COc2ccc(Cl)c3ccccc23)CC1 the Potency was active: 11.7 µM.
With C=CCN(c1ccccc1OC)S(=O)(=O)c1cccc(C(=O)OCC(=O)c2c[nH]c3ccccc23)c1 the Potency was inconclusive [inhibitor, single point].
For COc1ccccc1/C=C(/NC(=O)c1ccccc1)C(=O)NCCCn1ccnc1, the “activity change, negative = inhibition” value was inactive: 19.6%.
In the case of CCN(C(=O)C1CCCN(c2nc(-c3ccc(OC)cc3)no2)C1)c1ccccc1F (centres undefined), the Potency is reported as inconclusive [inhibitor, partial curve, poor fit].
In the case of Cc1cccc(CCN=c2c([N+](=O)[O-])nn(-c3ccccc3)n2O)c1, the Potency is reported as inconclusive [inhibitor, partial curve, poor fit].
With CCC(C)n1c(=S)[nH]c2ccccc2c1=O (centres undefined) the Potency was inconclusive [inhibitor, partial curve, poor fit].
In the case of CC(CN1CCN(C)CC1)OC(=O)c1cccc(Cl)c1 (centres undefined), the “activity change, negative = inhibition” value is reported as inactive: 5.54%.
For Cc1cccc(N(C2C=CS(=O)(=O)C2)S(=O)(=O)c2ccccc2)c1 (centres undefined), the Potency was inconclusive [inhibitor, partial curve, poor fit].
For Cc1nc(Nc2ccccc2)[nH]c(=O)c1CCC(C)C, the Potency was inconclusive [inhibitor, single point].
In the case of Cc1ccccc1/C=N/Nc1nc2ccccc2[nH]1, the Potency is reported as inconclusive [inhibitor, full curve, poor fit].
In the case of O=c1nc2ccccc2c2n1CC(CN1CCN(C(c3ccccc3)c3ccccc3)CC1)N2 (centres undefined), the Potency is reported as inconclusive [inhibitor, full curve].
With COc1cccc(NC(=O)CN(C)C(C)C(=O)NC(=O)NC2CCCCC2)c1 (centres undefined) the Potency was inconclusive [inhibitor, single point].
With CCC1(CC)Cc2ccccc2-c2nc(CN3CCOCC3)[nH]c(=O)c21 the Potency was inconclusive [inhibitor, single point].
With CCOC(=O)Cn1c(=O)oc2cc(S(=O)(=O)N(C)Cc3ccccc3)ccc21 the Potency was inconclusive [inhibitor, single point].
For O=C(CN(c1ccccc1)S(=O)(=O)c1ccccc1)NCCSCc1ccco1, the Potency was inconclusive [inhibitor, single point].
In the case of Cc1ccc(S(=O)(=O)N2CCN(C(=O)C3CCCC3)CC2)cc1C, the “activity change, negative = inhibition” value is reported as inactive: -3.3%.
In the case of Nc1c(C(=O)NCCN2CCOCC2)c2nc3ccccc3nc2n1-c1ccccc1, the Potency is reported as active: 9.28 µM.
For COCCSc1nnc(NS(=O)(=O)Cc2ccccc2)s1, the “activity change, negative = inhibition” value was inactive: 3.21%.
For C=C(C)COc1ccc(-c2nc(N)ncc2-c2ccc(OC)cc2)c(O)c1, the Potency was inconclusive [inhibitor, single point].
With Cc1ccc2c(c1)N(CC(=O)NCCCN1CCOCC1)C(=O)c1cccnc1O2 the “activity change, negative = inhibition” value was inactive: 27.8%.
For CN1C[C@@H]2C(c3ccc(Cl)nc3)C3(c4cccnc4)CC2(C3)[C@H]1c1ccccc1 (some centres undefined), the Potency was active: 10.4 µM.
In the case of CCn1c(O)c(C(C#N)=C2N=c3ccccc3=N2)c2ccccc21, the Potency is reported as inconclusive [inhibitor, partial curve].
In the case of NNC(=O)c1cc(O)c(O)c(O)c1, the Potency is reported as inconclusive [inhibitor, single point].
In the case of COc1ccc(C(=O)Nc2cccc3nc(C)ccc23)c(OC)c1, the Potency is reported as inconclusive [inhibitor, single point].
In the case of CN(C(=O)c1ccc(NC(=O)Cc2cccc(NC(=O)C3CCN(C(=O)C4CCC4)CC3)c2)cc1)C1CCCC1, the Potency is reported as inconclusive [inhibitor, partial curve, poor fit].
For O=C(c1ccc2c(=O)n(C3CCCC3)c(=S)[nH]c2c1)N1CCCCCC1, the Potency was inconclusive [inhibitor, partial curve].
In the case of O=S(=O)(c1ccc(F)cc1)N1CCN(c2nc(-c3ccc(F)cc3)cs2)CC1, the Potency is reported as inconclusive [inhibitor, partial curve].
With O=C(N/N=C(\c1ccccc1)c1ccccn1)c1cccc([N+](=O)[O-])c1 the Potency was inconclusive [inhibitor, full curve, poor fit].
With COc1ccc(-c2c(C)oc3c(CN4CCCCC4C)c(O)ccc3c2=O)cc1OC (centres undefined) the Potency was inconclusive [inhibitor, single point].
In the case of Cc1sc2nc(C(C)Sc3n[nH]c(N)n3)[nH]c(=O)c2c1C (centres undefined), the Potency is reported as inconclusive [inhibitor, partial curve].
For O=C1Nc2ccccc2OCc2c1cccc2[N+](=O)[O-], the Potency was inconclusive [inhibitor, full curve, poor fit].
In the case of Cc1cc(C)n2nc(SC(C)C(=O)N(C)c3ccccc3)nc2n1 (centres undefined), the Potency is reported as inconclusive [inhibitor, single point].
With COc1ccc(NC(=O)c2cc(=O)[nH]c(=O)[nH]2)cc1S(=O)(=O)Nc1ccccc1Cl the Potency was inconclusive [inhibitor, partial curve].
In the case of COc1ccc(CCC(=O)Nc2sc(C(=O)N(C)C)c(C)c2C#N)cc1, the “activity change, negative = inhibition” value is reported as inactive: -0.34%.
For COC(=O)c1ccsc1NC(=O)CN1CCN(c2ccc(F)cc2)CC1, the Potency was inconclusive [inhibitor, single point].
For O=c1cc(NCCc2ccccc2)c2ccccc2o1, the Potency was inconclusive [inhibitor, partial curve].
With Cc1ccc(OCCOCCN2CCN(C)CC2)c(C(C)(C)C)c1 the Potency was inconclusive [inhibitor, partial curve, poor fit].
For O=c1c(-c2ccccc2)c(O)c2c(n1-c1ccccc1)CCCC2, the Potency was inconclusive [inhibitor, partial curve, poor fit].
For CSCCC(NC(=O)COc1ccccc1)C(=O)N1CCN(C(C)=O)CC1 (centres undefined), the “activity change, negative = inhibition” value was inactive: 7.81%.
For COc1cccc(CN2CC(C(=O)NCCCc3ccc(C)cc3)CCC2=O)c1 (centres undefined), the “activity change, negative = inhibition” value was inactive: -6.49%.
For COc1cccc(NC(=O)Nc2nnc(N3C(C)CCCC3C)s2)c1 (centres undefined), the Potency was active: 13.1 µM.
In the case of Cc1ccc(/C=C2/Sc3ccc(C(=O)N4CCN(C)CC4)cc3NC2=O)cc1, the Potency is reported as inconclusive [inhibitor, partial curve, poor fit].
For CCc1nnc(NS(=O)(=O)c2ccc(NC(=O)c3cc(Cl)ccc3OC)cc2)s1, the Potency was inconclusive [inhibitor, single point].
In the case of COc1c(Cl)cc(Cl)cc1CNc1ccc(S(N)(=O)=O)cc1, the “activity change, negative = inhibition” value is reported as inactive: 34.8%.
In the case of CCc1cc2c(CN(C)Cc3ccccc3F)cc(=O)oc2cc1O, the Potency is reported as inconclusive [inhibitor, single point].
For CCCc1cc(-c2nc(N)ncc2-c2ccc3c(c2)OCCCO3)c(O)cc1OC, the Potency was inconclusive [inhibitor, partial curve].
In the case of CC(C)C(NS(=O)(=O)c1cccc(C(F)(F)F)c1)C(=O)N1CCc2ccccc2C1 (centres undefined), the Potency is reported as inconclusive [inhibitor, single point].
In the case of Brc1c(CSc2nncn2-c2ccccc2)nc2sccn12, the Potency is reported as inconclusive [inhibitor, partial curve, poor fit].
With CC(=O)c1ccc(NC(=S)NCc2cccnc2)cc1 the “activity change, negative = inhibition” value was inactive: -15.5%.
